Experimental findings from the RNAGym collection of RNA variant scans (doi:10.1093/nar/gkz1192) are described below.

Read counts are not given, so values of variants with three or more changes are uncertain.

First the molecules themselves.
B1: CPEB3 Ribozyme (parent)
chain: UAACAGGGGGCCACAGCAGAAGCGUUCACGUCGCAGCCCCUGUCAGAUUCUGGUGAAUCUGCGAAUUCUGCUGUAUAUCUC

The data set covers variants of B1. The experiment in a line: self-cleavage, relative activity (ratio to wild type); higher = more cleavage; in vitro, sequencing. Put shortly:
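Libraries of CPEB3 self-cleaving ribozyme mutants came from rounds of error-prone PCR and carried barcodes, which DNA sequencing matched to variants. In vitro transcription used T7 RNA polymerase at 37°C for 5 hours, with a further 15 min in DNase I before EDTA stopped the reaction; the ribozymes cleaved during both steps. The RNA was reverse transcribed with template switching and sequenced on Illumina. Relative activity is the cleaved/total read fraction of a variant divided by that of the unmutated ribozyme, averaged over three batches with at least 5 reads.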
On to UAACAGGGGGGCACAGCAAGAGCGUUCACGUCGCAGCCCCUGUCAGAUUCUGGUGAAUCUGCGAACCCAGCAGUAUAUCUC, for which the self-cleavage is 0.05. UAACAGGGGGGCACAGCAGAAGCGUUCACGUCACAGCCCCCGUCAGAUUCUGGUGAAUCUGCGAAUUCUGCUGUAUACCUC: the self-cleavage is 0.14.

On to UAACAGGGGGGCACAGCAUAAGCGUUCACGUCGCAGCCCCUGUCAGAUUCUGGUGAAUCCGCGAAUUCUGCAGUAUAUCUC, for which the self-cleavage is 0.07. Take UAACAGGGGGGCACAGCAGAAGCGUCCACGCCGCAGCCCCUGACAGAUUCCGGUGAAUCUGCGAAUUCUGCCGUAUAUCCC: the self-cleavage worked out at 0.07.

In the case of UAACAGGGGGGCACAGCAGAAGCGUUCACGUCGCAGCCCUUGUCAGAUCCUGGUGAAUCUGCUAAUUCAGCUGUAGAUCUC, the self-cleavage came to 0.03. Then UAACAGGGGGGCACAGCAGAAACGCUCCCGUCGCAGCCCCUGUCAGGUUCUGGUGAAUCUGCGAAUUCUGCUGUAUAUCUC, with 0.08; and UAACAGGGGGGCACAGCAGAAGCGUCCACGUCGCAGCCCCUGUCCGAUUCUGGUGAAUCUGCGAAUUCUGCUGUAUAUCUC, with 0.31. For the variant UAACAGGGGGGCACAGCAGAAGCGUCCACGACGCAGCCCCUGUCAGAUUCUGGUGAAUCUGCGAAUUCUGCUGUAUAUCUC, the self-cleavage was 0.2. As for UAACAGGGGGGCACAGCAGAAGCGCUCACGUCGCAGCCCCAGUCAGAUUCUGGUGGAUCUGCAAAUUCUGCUGUAUAUCUC, the figure is 0.08; as for UAACAGGGGGGCACAGCAGAAGCGUUCACGACGCAGCCCCCGCCAGAUUCUGGUGAAUCUGCGAAUUCCGCUGUAUACCUC, 0.05. As for UAACAGGGGGGCACAGCAGAAGCGUUCACGCCGCAGCCCCUGUCAGAUUCGGGCGAAUCUGCAAACUCUGCUGUAUAUCUC, the figure is 0.06; as for UAACAGGGGGGCACAGCAAAAGCGGUCACGUCGCGGCCCCUGUCAGAUUCUGGUAAAUCUGCGAAUUCUGCUGUAUAACUA, 0.06. As for UAACAGGGGGGCACAGCAGAAGCGUUCACGUCGCAGCCCCCGUCAGAUUCAGGUGAACCUGCGAAUUCUGCUGUAUAUCCC, the figure is 0.15; as for UAACAGGGGGGCACAGCAGAAGCGUUCACGUAGCAGUCCCUGUCGGAUUCUGGUGGAUCUGCGAAUUCUGCUGUAUAUCUC, 0.18. Regarding UAACAGGGGGGCACAGCAGAAGCGUUCACGUCGCAGCCCCUGUCAGAUCCUGGUGAAUCUGCGGAUUCUGCUGUAAAUCUC, the self-cleavage was 0.07. As for UAACAGGGGGGCACAGCAGAAGCGUCCACGUCGCAGCCCCUGACAGGUUCUGGAGAAUCUGCGAAUUCUGCUGUAUAUCCC, the figure is 0.06; as for UAACAGGGGGGCACAGCAGAAGCGUUCACGACGCAGCCCCUGUCAGAUUCAGGUGAAUCUGCGAAUUCUGCUGUAUGCCUC, 0.05. Then UAACAGGGGGGCACAGCAGAAGCGUUCACGUCGCAGCCCCUGACAGACUCUGGUGAAUCUGCGAAUUCUGCUGUAUAUCUC, with 0.6. Then UAACAGGGGGGCACAGCAGAAGCGUUCACGUCGCAGCCCCUGUCAGAAUCGGGUGAAUCUGCGAAUCCUGCUGAAUAUCUC, with 0.05; and UAACAGGGGGGCACAGCAUAAGCGUACACGUCGCAGCCCCUGUCUGAUUCUGGUGAAUCUGCGAAUUCUGCCGUAUAUCUC, with 0.06; and UAACAGGGGGGCACAGCAGAAGCGUUCACGUCGCAGCCCCUGACAGGUUCUGGUGAAUCUGCGAAUUCUGCUGCAUAUCUC, with 0.93. Turning to UAACAGGGGGGCACAGCAGAAGCGUUCACGUAGCAGCCCCGGUCGGAUUCUGGUGGAUCUGCGAAUUCUGCUGUAUAUCUC, the self-cleavage is 0.06. Then UAACAGGGGGGCACAGCAGAAGCGUUCACGUCGCAGCCCCUGCCAGAUUCUGGUGGAUCAGCGAAUUCUGCUGUAUAUCUC, with 0.26; and UAACAGGGGGGCACAGCAGAAGCGCUCACGUCGCAGCCCCUGUCAGAUUCUGGUGGAUCCGCGAAUUCUGCUGUAUUUCUC, with 0.05. As to UAACAGGGGGGCACAGCAGAAGCGUACACGUCGCAGCCCCUGUCGGAUUCUGGUGAGUCUGCGAAUUCUGCUGUAUAUCUC, the self-cleavage stood at 0.07. Then UAACAGGGGGGCACAGCAGAAGCAUUCACGUCGCAGCCCCUGUCAGAUUCUGGUGAAUCUGCGAAUUCUGCCGUAUAUCUC, with 0. With UAACAGGGGGGCACAACAGAAGCGUUCACGUCGCAGCCCCUGUCAGAUUCUGGUGAAUCCGCGAAUUCUGCUGUAUAUCUC, the self-cleavage was 0.05. Consider UAACAGGGGGGCACAGCAGAAGCGUUCACGUCGCAGCCGCCGUCAGAUUCUGGUGAAUCUGCGAAUUCUGCCGUGUAUCUC, for which the self-cleavage stood at 0.06.

For UAACAGGGGGGCACAGCAGAAGCAUUCACGUCACAGCCCCUGUCAGAUUCUGCUGAAUCUGCGAAUUCUGCUGUACAUCUC, the self-cleavage was found to be 0.06. UAACAGGGGGGCACAGCAGAAGCGUUCACGUCGCAGCCCCUGUCAGAUCCUGGUGAACCUGCGAGUUCUGCGGUAUAUCUC: the self-cleavage stood at 0.1.

Regarding UAACAGGGGGGCACAGCAGAAGCGUACACGUCGCGGCCCCUGUCAGGUUCUGGCGAGUCUGCGAAUUCUGCCGUAUAUCUC, the self-cleavage is 0.04. As for UAACAGGGGGGCACAGCAGAAGCGUUCACAUCGCAGCCCCAGUCAGAUUCUGGUGAAUCUGCGAAUUCUGCUGUGUAUCUC, the figure is 0.04.

For the variant UAACAGGGGGGCACAGCAGAAGCGUUCACGUCGCAGCCCCAGUCAGAUUCUGGUGAAUCUGCGAAUUCUGCCGUAUAUCUC, the self-cleavage turned out to be 0.07.

For UAACAGGGGGGCACAGCAGAAGCGUCCACGUCGCAGCCCCUGUCAGAAUCAGGUGAAUCUGCGAAUUCUGCUGUAUAUCUC, the self-cleavage came to 0.22.
